Broadly, the MIC is the lowest concentration found to suppress growth.

MIC of clinical C. albicans isolates, CLSI broth microdilution (ranges and time not stated); higher = less susceptible. Call: susceptible or wild type [S] / resistant or non-wild type [R] by CLSI breakpoints or epidemiological cut-offs; intermediate and dose-dependent carry no call here (the paper groups them with resistant). '<=' and '>=' mark each drug's lowest and highest value, inferred; the source prints them plain. Isolates are numbered anew.

We go through 16 test systems from the supplement of paper PMC9927326.

Common to all, as to assay: CLSI broth microdilution.
In general terms: Dilution methods test growth across graded concentrations, often in twofold steps.

Compound in one test: CCC(C)n1ncn(-c2ccc(N3CCN(c4ccc(OCC5COC(Cn6cncn6)(c6ccc(Cl)cc6Cl)O5)cc4)CC3)cc2)c1=O [itraconazole]
Compound in a further test: C[C@@H]1[C@H](O)[C@@H](C)/C=C/C=C/C=C/C=C/C=C/C=C/C=C/[C@H](O[C@@H]2O[C@H](C)[C@@H](O)[C@H](N)[C@@H]2O)C[C@@H]2O[C@](O)(C[C@@H](O)C[C@@H](O)[C@H](O)CC[C@@H](O)C[C@@H](O)CC(=O)O[C@H]1C)C[C@H](O)[C@H]2C(=O)O [amphotericin B]
Compound in another test: Nc1[nH]c(=O)ncc1F [flucytosine]
Compound in the next test: CCCCCOc1ccc(-c2cc(-c3ccc(C(=O)N[C@H]4C[C@@H](O)[C@@H](O)NC(=O)[C@@H]5[C@@H](O)[C@@H](C)CN5C(=O)[C@H]([C@H](O)CC(N)=O)NC(=O)[C@H]([C@H](O)[C@@H](O)c5ccc(O)c(OS(=O)(=O)O)c5)NC(=O)[C@@H]5C[C@@H](O)CN5C(=O)[C@H]([C@@H](C)O)NC4=O)cc3)no2)cc1 [micafungin]
Compound in another test: OC(Cn1cncn1)(Cn1cncn1)c1ccc(F)cc1F [fluconazole]
Compound in the next test: C[C@@H](c1ncncc1F)[C@](O)(Cn1cncn1)c1ccc(F)cc1F [voriconazole]
Compound in another test: CC[C@H](C)C[C@H](C)CCCCCCCCC(=O)N[C@H]1C[C@@H](O)[C@@H](NCCN)NC(=O)[C@@H]2[C@@H](O)CCN2C(=O)[C@H]([C@H](O)CCN)NC(=O)[C@H]([C@H](O)[C@@H](O)c2ccc(O)cc2)NC(=O)[C@@H]2C[C@@H](O)CN2C(=O)[C@H]([C@@H](C)O)NC1=O [caspofungin]
Compound in a further test: CCCCCOc1ccc(-c2ccc(-c3ccc(C(=O)N[C@H]4C[C@@H](O)[C@@H](O)NC(=O)[C@@H]5[C@@H](O)[C@@H](C)CN5C(=O)[C@H]([C@@H](C)O)NC(=O)[C@H]([C@H](O)[C@@H](O)c5ccc(O)cc5)NC(=O)[C@@H]5C[C@@H](O)CN5C(=O)[C@H]([C@@H](C)O)NC4=O)cc3)cc2)cc1 [anidulafungin]
Compound in the next test: CC[C@@H]([C@H](C)O)n1ncn(-c2ccc(N3CCN(c4ccc(OC[C@@H]5CO[C@@](Cn6cncn6)(c6ccc(F)cc6F)C5)cc4)CC3)cc2)c1=O [posaconazole]

As to “Candida albicans isolate 68 (Erg11p: V488I,L276S,E266D, Fur1p: WT, Tac1p: N896S,I895T)”, the MIC with itraconazole is 0.06 mg/L [S]; with amphotericin B, 0.25 mg/L [S]; in the test with flucytosine, not above 0.06 mg/L [S]; with micafungin, 0.015 mg/L [S]; with fluconazole it was 1 mg/L [S]; with voriconazole it was 0.015 mg/L [S]. Besides, the MIC with caspofungin, with anidulafungin and with posaconazole was 0.03 mg/L [S] each time.
For “Candida albicans isolate 69 (Erg11p: G448E,Y132H, Fur1p: R101C, Tac1p: WT)”, the MIC is 0.06 mg/L [S] with itraconazole; 0.5 mg/L [S] in the test with amphotericin B; 0.25 mg/L [S] in the test with flucytosine; not above 0.008 mg/L [S] with micafungin; 4 µg/mL with fluconazole; 0.5 µg/mL with voriconazole. Further, the MIC with caspofungin was 0.015 mg/L [S]; with anidulafungin, not above 0.015 mg/L [S]; with posaconazole it was 0.03 mg/L [S].
On to “Candida albicans isolate 70 (Erg11p: F145L,A114V, Fur1p: R101C, Tac1p: H263Y)”, for which the MIC was determined as 0.5 mg/L [R] with itraconazole; 0.5 mg/L [S] in the test with amphotericin B; 0.12 mg/L [S] with flucytosine; 0.015 mg/L [S] with micafungin; 16 mg/L [R] with fluconazole; 0.25 µg/mL with voriconazole. For the same test system, the MIC is 0.06 mg/L [S] in the test with caspofungin, not above 0.015 mg/L [S] in the test with anidulafungin and 0.5 mg/L [R] in the test with posaconazole.
For “Candida albicans isolate 71 (Erg11p: Y132H,T123I, Fur1p: R101C, Tac1p: WT)”, the MIC in the test with itraconazole is 0.12 mg/L [S]; with amphotericin B it was 0.5 mg/L [S]; with flucytosine, 0.25 mg/L [S]; in the test with micafungin, not above 0.008 mg/L [S]; with fluconazole, 4 µg/mL; with voriconazole it was 0.5 µg/mL. Moreover, the MIC with caspofungin was 0.03 mg/L [S]; with anidulafungin, not above 0.015 mg/L [S]; with posaconazole, 0.06 mg/L [S].
“Candida albicans isolate 72 (Erg11p: E266D, Fur1p: WT, Tac1p: N896S,I558V,A377V,F189S,N174D,M170I,K87N)”: the MIC was 0.03 mg/L [S] with itraconazole; 0.5 mg/L [S] with amphotericin B; not above 0.06 mg/L [S] with flucytosine; 0.015 mg/L [S] in the test with micafungin; 0.5 mg/L [S] in the test with fluconazole; not above 0.008 mg/L [S] with voriconazole. Also, the MIC came out at 0.03 mg/L [S] with caspofungin, 0.06 mg/L [S] with anidulafungin and 0.03 mg/L [S] with posaconazole.
Take “Candida albicans isolate 73 (Erg11p: V488I,E266D, Fur1p: WT, Tac1p: N896S,M170V,S108N)”: the MIC in the test with itraconazole was not above 0.015 mg/L [S]; with amphotericin B, 0.5 mg/L [S]; with flucytosine, not above 0.06 mg/L [S]; with micafungin, 0.015 mg/L [S]; with fluconazole, 0.5 mg/L [S]; with voriconazole it was not above 0.008 mg/L [S]. For the same test system, the MIC in the test with caspofungin was 0.015 mg/L [S]; in the test with anidulafungin it was 0.03 mg/L [S]; with posaconazole, not above 0.008 mg/L [S].
With “Candida albicans isolate 74 (Erg11p: E266D, Fur1p: WT, Tac1p: I558V,A377V,F189S,N174D,M170I,K87N)”, the MIC with itraconazole was 0.06 mg/L [S]; with amphotericin B, 0.5 mg/L [S]; with flucytosine, not above 0.06 mg/L [S]; in the test with micafungin it was not above 0.008 mg/L [S]; with fluconazole it was 0.25 mg/L [S]; with voriconazole, not above 0.008 mg/L [S]. The MIC with caspofungin turned out to be 0.06 mg/L [S]; in the test with anidulafungin it was 0.06 mg/L [S]; with posaconazole, 0.03 mg/L [S].
With “Candida albicans isolate 75 (Erg11p: E266D,G129A, Fur1p: WT, Tac1p: R869Q,L695F,I558V,A377V,F189S,M170V,L131I)”, the MIC is 0.03 mg/L [S] with itraconazole; 0.25 mg/L [S] in the test with amphotericin B; not above 0.06 mg/L [S] with flucytosine; 0.015 mg/L [S] in the test with micafungin; 0.5 mg/L [S] with fluconazole; not above 0.008 mg/L [S] in the test with voriconazole. Moreover, the results for the MIC with caspofungin, in the test with anidulafungin and with posaconazole were 0.03 mg/L [S], not above 0.015 mg/L [S] and 0.03 mg/L [S], respectively.
As to “Candida albicans isolate 76 (Erg11p: E266D,K143R, Fur1p: WT, Tac1p: N896S,I558V,A377V,F189S,N174D,M170I,K87N)”, the MIC in the test with itraconazole is 0.06 mg/L [S]; in the test with amphotericin B, 0.5 mg/L [S]; in the test with flucytosine, not above 0.06 mg/L [S]; with micafungin it was 0.015 mg/L [S]; with fluconazole, 0.25 mg/L [S]; with voriconazole it was 0.015 mg/L [S]. The MIC with caspofungin was 0.06 mg/L [S]; in the test with anidulafungin, not above 0.015 mg/L [S]; with posaconazole it was 0.03 mg/L [S].
On to “Candida albicans isolate 77 (Erg11p: Y257H,A114S, Fur1p: R101C, Tac1p: A736V)”, for which the MIC in the test with itraconazole was 0.25 mg/L [R]; in the test with amphotericin B, 0.5 mg/L [S]; with flucytosine it was 0.12 mg/L [S]; in the test with micafungin, not above 0.008 mg/L [S]; with fluconazole it was 4 µg/mL; with voriconazole, 0.25 µg/mL. Also, the MIC with caspofungin was 0.015 mg/L [S]; in the test with anidulafungin, not above 0.015 mg/L [S]; with posaconazole, 0.12 mg/L [R].
Consider “Candida albicans isolate 78 (Erg11p: WT, Fur1p: WT, Tac1p: N896S)”, for which the MIC in the test with itraconazole was not above 0.015 mg/L [S]; in the test with amphotericin B it was 0.5 mg/L [S]; in the test with flucytosine, not above 0.06 mg/L [S]; with micafungin it was not above 0.008 mg/L [S]; in the test with fluconazole, 0.25 mg/L [S]; in the test with voriconazole, not above 0.008 mg/L [S]. Moreover, the results for the MIC in the test with caspofungin, with anidulafungin and with posaconazole were 0.015 mg/L [S], not above 0.015 mg/L [S] and 0.015 mg/L [S], respectively.
Consider “Candida albicans isolate 79 (Erg11p: WT, Fur1p: WT, Tac1p: N896S)”, for which the MIC in the test with itraconazole was 0.03 mg/L [S]; in the test with amphotericin B it was 0.5 mg/L [S]; in the test with flucytosine it was not above 0.06 mg/L [S]; in the test with micafungin it was not above 0.008 mg/L [S]; with fluconazole it was 0.25 mg/L [S]; with voriconazole it was not above 0.008 mg/L [S]. Also, the figures for the MIC with caspofungin, in the test with anidulafungin and in the test with posaconazole were 0.03 mg/L [S], not above 0.015 mg/L [S] and 0.015 mg/L [S], respectively.
Turning to “Candida albicans isolate 80 (Erg11p: E266D, Fur1p: WT, Tac1p: N896S,I558V,A377V,F189S,N174D,M170I,K87N)”, the MIC with itraconazole was 0.06 mg/L [S]; with amphotericin B it was 0.5 mg/L [S]; with flucytosine it was not above 0.06 mg/L [S]; with micafungin, 0.03 mg/L [S]; with fluconazole, 0.5 mg/L [S]; in the test with voriconazole it was not above 0.008 mg/L [S]. The MIC with caspofungin was found to be 0.12 mg/L [S]; with anidulafungin, 0.12 mg/L [S]; in the test with posaconazole, 0.03 mg/L [S].
Consider “Candida albicans isolate 81 (Erg11p: WT, Fur1p: R101C, Tac1p: WT)”, for which the MIC with itraconazole was 0.03 mg/L [S]; with amphotericin B it was 0.25 mg/L [S]; in the test with flucytosine it was 0.12 mg/L [S]; with micafungin, 0.015 mg/L [S]; with fluconazole it was 0.25 mg/L [S]; with voriconazole, not above 0.008 mg/L [S]. Further, the MIC in the test with caspofungin turned out to be 0.03 mg/L [S]; in the test with anidulafungin it was 0.06 mg/L [S]; with posaconazole, 0.015 mg/L [S].
With “Candida albicans isolate 82 (Erg11p: V488I,E266D, Fur1p: WT, Tac1p: N896S)”, the MIC in the test with itraconazole was 0.03 mg/L [S]; with amphotericin B it was 0.5 mg/L [S]; with flucytosine, not above 0.06 mg/L [S]; with micafungin, 0.015 mg/L [S]; in the test with fluconazole, 0.5 mg/L [S]; in the test with voriconazole, not above 0.008 mg/L [S]. The MIC is 0.015 mg/L [S] with caspofungin, not above 0.015 mg/L [S] in the test with anidulafungin and 0.03 mg/L [S] with posaconazole.
As for “Candida albicans isolate 83 (Erg11p: V488I,L276S,E266D, Fur1p: WT, Tac1p: N896S,I895T)”, the MIC with itraconazole is 0.03 mg/L [S]; in the test with amphotericin B it was 0.25 mg/L [S]; in the test with flucytosine, not above 0.06 mg/L [S]; with micafungin, 0.015 mg/L [S]; in the test with fluconazole it was 1 mg/L [S]; with voriconazole it was 0.015 mg/L [S]. Also, the MIC with caspofungin worked out at 0.015 mg/L [S]; in the test with anidulafungin, 0.12 mg/L [S]; with posaconazole, 0.03 mg/L [S].
